# Assay results reported in PubChem BioAssay AID504706 (National Center for Advancing Translational Sciences (NCATS), 2011).
# Among all 320,000 compounds or so, about 200 (0.062%) were called active. This list was built around the results that the source calls inconclusive (neither active nor inactive); the mix of calls is not that of the screen. The call rests on the fitted dose curve; in most records, active means well fitted activation curve with a large enough effect; inconclusive means small, poorly fitted or top-dose-only effect; inactive means no such curve, though single readings can be large or run the other way. No potency is given beside an inconclusive call; the fits are too rough.
# Test: qHTS assay for re-activators of p53 using a Luc reporter; further: nearly all actives have a fitted effect of over 45% in size
# Conditions: H1299 p53-A138V BP100-luciferase reporter, luminescence, 24 h; series mostly up to 92.2 µM
# Outline: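 p53-null H1299 cells stably carrying temperature-sensitive p53-A138V and a BP100-luciferase reporter were pinned with compounds (4-point, 1:5 series) and held 24 hrs at 37 deg C. Luminescence was read 10 min after detection reagent.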
# Potency means the concentration at half of the fitted maximal effect; tags describe the fitted curve by direction and shape.
row,Structure (SMILES),Potency
1,O=C(NC1CC1)c1ccc(COc2ccc(F)cc2)o1,"inconclusive [activator, single point]"
2,Cc1ccc(S(=O)(=O)N2CC(C)N(C(=O)N3CCOCC3)C2C)cc1 (stereo unspecified),inactive
3,COc1ccc(NC(=O)COc2ccccc2)c(OC)c1,"inconclusive [activator, partial curve, poor fit]"
4,c1ccc2oc(NC3=NCN(CC4CCCO4)CN3)nc2c1 (stereo unspecified),"inconclusive [activator, partial curve, poor fit]"
5,O=C1c2ccccc2C(=O)N1CSc1nnnn1-c1ccccc1,inactive
6,CC(=O)c1sc(NC(=O)c2ccco2)nc1-c1ccccc1,"inconclusive [activator, full curve, poor fit]"
7,O=C(Nc1nnc(C(F)(F)F)s1)c1cccnc1,"inconclusive [activator, full curve, poor fit]"
8,O=S(=O)(c1ccc(F)cc1)c1nc(-c2ccco2)oc1Nc1ccccc1,"inconclusive [activator, partial curve, poor fit]"
9,O=C(COC(=O)Cn1cc(C(F)(F)F)ccc1=O)Nc1ccc(Br)cc1F,inactive
10,CCOc1ccc(C(=O)CCC(=O)Nc2ccc(C)c(S(=O)(=O)N3CCCCC3)c2)cc1,inactive
11,NS(=O)(=O)c1ccc(CCNC(=O)CCC(=O)c2cccs2)cc1,"inconclusive [activator, partial curve, poor fit]"
12,COc1ccc(CN=CC2=C(O)CC(C)(C)CC2=O)cc1,"inconclusive [activator, single point]"
13,CCOc1ccc(-n2c(N)c(-c3nc4ccccc4[nH]3)sc2=S)cc1,inactive
14,O=C(O)c1ccc2nc(-c3ccccc3)c(-c3ccccc3)nc2c1,"inconclusive [activator, partial curve, poor fit]"
15,CN1C(=O)/C(=C/c2ccc(OCc3ccccc3F)cc2)NC1=S,inactive
16,Nc1nc(OCC(F)(F)F)cc(Oc2ccccc2F)n1,"inconclusive [activator, single point]"
17,CCCC(=O)N1CCCC(c2nc(-c3cccs3)no2)C1 (stereo unspecified),"inconclusive [activator, partial curve, poor fit]"
18,CC(C)(C)C(=O)NC(=S)Nc1sc2c(c1C#N)CCCCC2,"inconclusive [activator, partial curve, poor fit]"
19,O=C1/C(=C/c2cccc3ccccc23)CCCc2ccccc21,"inconclusive [activator, partial curve, poor fit]"
20,Cc1nc2sc(-c3ccccc3)cc2c(=O)n1-n1cccc1,"inconclusive [activator, partial curve, poor fit]"
21,C/C(CC(=O)Nc1ccc2c(c1)OCO2)=N\NC(=O)OC(C)(C)C,"inconclusive [activator, partial curve, poor fit]"
22,COc1ccc(-c2nsc3c(N4CCCC4)ncnc23)cc1,"inconclusive [activator, partial curve, poor fit]"
23,CCOc1ccc(C(=O)NCC(=O)OCc2c(F)cccc2Cl)cc1,inactive
24,Cc1occc1-c1nnc(SCC(=O)NCc2cccs2)n1CC1CCCO1 (stereo unspecified),"inconclusive [activator, full curve, poor fit]"

row,Structure (SMILES),Potency
1,Cc1ccc(NC(=O)NNC(=O)c2cccs2)cc1,"inconclusive [activator, full curve, poor fit]"
2,Cc1cc(NCCCN2CCOCC2)n2ncc(-c3ccc(Cl)cc3)c2n1,"inconclusive [activator, single point]"
3,Cc1cc(C)n(-c2nnc(NC34CC5CC(CC(C5)C3)C4)nn2)n1,"inconclusive [activator, partial curve, poor fit]"
4,CCOC(=O)C(NC(=O)CC)(Nc1ccc(S(=O)(=O)Nc2onc(C)c2C)cc1)C(F)(F)F (stereo unspecified),"inconclusive [activator, full curve, poor fit]"
5,CC(=O)Nc1cccc(OC(=O)c2ccoc2C)c1,"inconclusive [activator, single point]"
6,COc1ccc(/C=N/Nc2nc3ccccc3s2)cc1O,"inconclusive [activator, full curve, poor fit]"
7,Cc1ccc(NC(=O)[C@H](NC(=O)[C@@H]2Cc3ccccc3CN2)c2ccccc2)cc1,"inconclusive [activator, single point]"
8,Cc1cccc(NC(=O)c2ccc([N+](=O)[O-])o2)c1C,inactive
9,FC(F)Oc1ccc(NC(=S)NC23CC4CC(CC(C4)C2)C3)cc1,"inconclusive [activator, single point]"
10,CCOC(=O)/C(=C/C=C1\Sc2cc(OCC)c(OCC)cc2N1CC)C(C)=O,inactive
11,Cc1nnc2n(c1=O)N=C(c1ccc(Cl)cc1)CS2,"inconclusive [activator, partial curve, poor fit]"
12,Cc1c(O)ccc(/C=N/Nc2ncccc2[N+](=O)[O-])c1O,inactive
13,O=C(c1cc(COc2ccc(F)cc2Cl)on1)N1CCCCC1c1cccnc1 (stereo unspecified),"inconclusive [activator, single point]"
14,COCCNc1nc2c(c(=O)n(C)c(=O)n2C)n1Cc1cccc(C(F)(F)F)c1,inactive
15,CCNC(=S)N(CCc1ccc(OC)c(OC)c1)Cc1cc2cc(OC)ccc2[nH]c1=O,inactive
16,CCC1=Nc2cc(C(=O)NCc3ccco3)ccc2Sc2ccc(Cl)cc21,inactive
17,CC(=O)CSc1nc2ccccc2o1,"inconclusive [activator, partial curve, poor fit]"
18,Cc1ccsc1C(=O)OCC(=O)N1CCN(c2ccccc2)CC1,"inconclusive [activator, partial curve, poor fit]"
19,CN1CCN(C(=S)SCC(=O)Nc2nc(-c3ccccc3)c(-c3ccccc3)o2)CC1,inactive
20,CN1CCN(c2nc(-c3ccc(C(C)(C)C)cc3)nc3ccccc23)CC1,"inconclusive [activator, full curve, poor fit]"
21,O=c1[nH]c(CN2CCc3ccccc32)nc2scc(-c3cccs3)c12,"inconclusive [activator, single point]"
22,CCc1ccccc1NC(=S)NCc1cccn1C,inactive
23,COC(=O)c1ccc(CC(=O)c2ccc(O)cc2O)o1,inactive
24,COc1ccc2c(c1)nc1n2CN(CC2CCCO2)CN1Cc1ccccc1 (stereo unspecified),"inconclusive [activator, partial curve, poor fit]"

row,Structure (SMILES),Potency
1,CC(Cc1cccs1)NC(=S)Nc1ccc(Cl)cc1 (stereo unspecified),"inconclusive [activator, partial curve, poor fit]"
2,CC(C)CNc1nc(NC(C)(C)C)nc(Oc2ccc(=O)[nH]n2)n1,inactive
3,COC(=O)c1sccc1NC(=O)c1ccco1,inactive
4,COc1cccc2cc(-c3nc(-c4cccs4)cs3)c(=O)oc12,"inconclusive [activator, partial curve, poor fit]"
5,Cc1ccc2c(c1)S/C(=C\c1cccc[n+]1C)N2CCO,"inconclusive [activator, full curve, poor fit]"
6,O=C(NCc1cccnc1)C1CC(=O)N(C2CCCCC2)C1 (stereo unspecified),inactive
7,O=C(COC(=O)c1ccccc1Br)NC1CCCC1,"inconclusive [activator, partial curve, poor fit]"
8,CC(NCc1ccc(S(N)(=O)=O)cc1)C(=O)Nc1ccc([N+](=O)[O-])cc1Cl (stereo unspecified),inactive
9,COc1ccccc1OCCN(C#N)c1nc(N(C)C)nc(N(C)C)n1,inactive
10,CC(=O)Nc1ccc(NC(=O)CN(c2ccc([N+](=O)[O-])cc2)S(=O)(=O)c2ccccc2)cc1,inactive
11,N[C@@H](Cc1ccc(O)cc1)C(=O)Nc1ccc2ccccc2c1,"inconclusive [activator, single point]"
12,Cc1nnc(N(Cc2ccco2)C(=O)c2ccc(C#N)cc2)s1,inactive
13,COc1ccc(C2Nc3ccccc3C(=O)N2c2ccc(Cl)cc2)cc1Cn1cc([N+](=O)[O-])cn1 (stereo unspecified),"inconclusive [activator, partial curve, poor fit]"
14,CCc1ccc(C(=O)COC(=O)c2cccc(N3C(=O)c4c(C)nc5ccccc5c4C3=O)c2)cc1,inactive
15,CCOc1cccc2cc(C(=O)NCc3ccc(F)cc3)c(=N)oc12,inactive
16,O=C(Cc1ccccc1[N+](=O)[O-])N1CCN(c2ccccc2F)CC1,"inconclusive [activator, partial curve, poor fit]"
17,CC1C/C(=N\Nc2ccc(S(N)(=O)=O)cc2[N+](=O)[O-])CC(C)(C)C1 (stereo unspecified),inactive
18,Cc1sc(NC(=O)c2ccc(Cl)s2)c(C(N)=O)c1C,"inconclusive [activator, partial curve, poor fit]"
19,CCOc1ccc(Nc2nc(N3CCOCC3)nc(N3CCOCC3)n2)cc1,"inconclusive [activator, single point]"
20,CCN(CC)C(=O)c1ccc(CS(=O)(=O)c2ccc(OC)cc2)o1,"inconclusive [activator, single point]"
21,CCN(CC)c1nc2c(s1)C(=O)NCCC2,"inconclusive [activator, single point]"
22,ClCc1nc2ccccc2n1Cc1ccccc1,inactive
23,O=C(c1ccc2c(c1)OCO2)C1CCCN(Cc2cccn2-c2cccnc2)C1 (stereo unspecified),inactive
